The campaign covered roughly 110,000 compounds. About 230 (0.21%) showed an effect of 50% or more. This is one part of the list.
biological target: DPAP1 (Plasmodium falciparum, UniProt Q8IIJ9); assay: primary screen, percent inhibition; read by cleavage of a fluorogenic dipeptide substrate; higher = more effect of the substance; design: species or system P. falciparum D10 trophozoite lysates; single well
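Note: 30 min substrate incubation versus DMSO and 10 µM JCP410 controls.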

Sequence of DPAP1 (Q8IIJ9 whole entry, looked up): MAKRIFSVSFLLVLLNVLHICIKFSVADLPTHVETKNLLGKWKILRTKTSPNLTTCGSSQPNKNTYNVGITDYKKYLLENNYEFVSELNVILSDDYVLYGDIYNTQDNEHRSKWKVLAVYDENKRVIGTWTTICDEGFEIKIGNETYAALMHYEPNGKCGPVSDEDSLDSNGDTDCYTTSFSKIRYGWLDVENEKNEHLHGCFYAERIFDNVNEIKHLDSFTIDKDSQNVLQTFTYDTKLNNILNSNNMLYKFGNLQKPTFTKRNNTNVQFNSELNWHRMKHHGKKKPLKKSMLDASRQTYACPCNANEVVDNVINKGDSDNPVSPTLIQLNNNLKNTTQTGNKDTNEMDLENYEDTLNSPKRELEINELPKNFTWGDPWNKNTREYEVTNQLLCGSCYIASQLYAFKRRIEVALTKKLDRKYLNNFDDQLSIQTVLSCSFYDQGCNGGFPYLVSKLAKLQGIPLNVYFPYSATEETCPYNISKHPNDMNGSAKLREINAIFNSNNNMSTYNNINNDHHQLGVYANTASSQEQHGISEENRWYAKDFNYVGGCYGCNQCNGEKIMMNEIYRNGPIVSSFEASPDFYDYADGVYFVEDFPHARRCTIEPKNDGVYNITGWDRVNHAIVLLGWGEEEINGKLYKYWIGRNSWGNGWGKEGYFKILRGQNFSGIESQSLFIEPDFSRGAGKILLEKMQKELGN

SMILES | % Inhibition @ 10 uM
Cc1cc(C(=O)NCCc2c[nH]c3ccccc23)c2c(C)nn(-c3ccccc3Cl)c2n1 | 0.44%
COc1ccc(OC)c(CN2CCN(c3cccc(Cl)c3)CC2)c1 | 0.605%
CC(C)OCCCNC(=O)CSc1c2c(nc3cc(Cl)ccc13)CCCC2 | -9.07%
O=C(c1ccccc1)c1ccccc1C(=O)N1CCCCC1 | 4.55%
COc1cccc(-c2nnc3n(CCc4ccccc4)c(=O)c4ccccc4n23)c1OC | 1.68%
CCOCCCNC(=O)c1sc2nc(C)cc(C)c2c1-n1cccc1 | -4.68%
CCOCCCn1nnc2c(O)nc(C(=O)NCc3cccc(Cl)c3)nc21 | -7.46%
CC1=C(C)CC(C(=O)Nc2ccc3c(c2)oc2ccccc23)C(C(=O)O)C1 (stereo not drawn) | -6.24%
Cc1cc(NC(=O)c2sc3nc4c(cc3c2N)CC(C)CC4)no1 (stereo not drawn) | 2.95%
C#CCOc1nc(OCC#C)nc(N2CCOCC2)n1 | 0.558%
COC(=O)c1ccc(CS(=O)(=O)c2c(Cl)cccc2Cl)o1 | -0.256%
O=C(O)c1c(CNCCCN2CCOCC2)c2ccccc2n1Cc1ccc(F)cc1Cl | -5.05%
Cc1cc(C)nc(N2CCC(NC(=O)NC34CC5CC(CC(C5)C3)C4)CC2)n1 | 2.25%
CCOc1ccccc1C1CC(=O)Nc2cc3c(cc21)OCO3 (stereo not drawn) | 5.15%
O=C(c1ccccc1Cl)N1CCCC(c2nc(O)c3nnn(Cc4ccco4)c3n2)C1 (stereo not drawn) | -4.07%
CCn1c(C)c(C)c2cc(C(=O)NCc3ccccc3Cl)ccc21 | -2.46%
CC1SC(c2ccccc2)N(CC(O)c2ccc([N+](=O)[O-])cc2)C1=O (stereo not drawn) | -6.99%
Cc1cccc(NC(=N)Nc2nc(O)c3c(n2)CCCC3)c1 | -6.05%
COc1cc(C)c(/C=C/C(C)=O)c(C)c1C | -6.46%
O=C(NCCc1ccc(Cl)cc1)C1CCCN(S(=O)(=O)N2CCC3(CC2)OCCO3)C1 (stereo not drawn) | -1.97%
CC(=O)c1ccc(Nc2ncnc(Nc3ccc(C(C)=O)cc3)c2[N+](=O)[O-])cc1 | 1.04%

SMILES | % Inhibition @ 10 uM
Cc1cc(CN2CCCC(O)C2)c(C)n1-c1cccc(C(F)(F)F)c1 (stereo not drawn) | 1.57%
COc1ccc(-n2c(CCC(=O)O)ccc2-c2ccc(F)cc2)c(OC)c1 | -2.14%
COc1cc(C(=O)N2CCN(C(=O)c3cc(-c4ccc(Cl)cc4)[nH]n3)CC2)cc(OC)c1OC | -3.77%
Cc1ccc(OCC(=O)N2CCCc3ccccc32)cc1 | -2.3%
COc1ccc(-c2nnc(NC(=O)c3ccc(F)cc3)s2)cc1 | 5.94%
COc1ccccc1CNS(=O)(=O)c1ccc(-c2cc(C)no2)cc1 | -2.92%
Cc1ccc(Cn2c3ccccc3c3nnc(NCCCN4CCCC4=O)nc32)cc1 | -2.79%
Cc1ccc(S(=O)(=O)N(C)Cc2nc(-c3ccc(Cl)cc3)no2)cc1 | -5.15%
COc1ccc(-c2cc(C(=O)NC(C)(C)CO)on2)cc1OC | -0.0401%
Cc1oc2ccc(O)cc2c1C(=O)c1ccc(F)cc1 | -0.28%
COc1ccc2c(c1)C(C(C(C)=O)C(=O)c1ccc(C)cc1)c1ccccc1O2 (stereo not drawn) | 3.93%
COc1ccc(C2(C(=O)Nc3cc(C)ccc3OC)CCOCC2)cc1 | -4.71%
NS(=O)(=O)c1ccc(NC(=O)c2ccc(N3C(=O)CCC3=O)cc2)cc1 | -3.95%
CC(C)CC(NC(=O)C1CCNCC1)C(=O)NC(CCc1ccccc1)CCS(=O)(=O)c1ccc2ccccc2c1 (stereo not drawn) | -5.64%
CCOC(=O)c1cc2c(=O)n3cccc(C)c3nc2n(CCOC)c1=N | 1.97%
COc1ccc(C2CC(c3ccc(Br)cc3)=NN2S(C)(=O)=O)cc1 (stereo not drawn) | 0.13%
O=C(O)CC(CC(=O)Nc1nn[nH]n1)c1ccccc1 (stereo not drawn) | -3.23%
Cc1ccc2cnn(CCCC(=O)NCc3ccccc3)c2c1 | -2.88%
Cn1c(=O)c2c(nc3n(-c4ccccc4)c(-c4ccc(F)cc4)cn23)n(C)c1=O | 3.9%
[O-]/[N+](=C\c1cccc(Br)c1)c1ccccc1 | 4.41%
Nc1ncnc2ncc3c4ccccc4[nH]c3c12 | 2.17%

SMILES | % Inhibition @ 10 uM
Cc1ccc2c(Sc3ccc(Cl)cc3)c(C(=O)NCCN3CCOCC3)[nH]c2c1 | -2.78%
COc1cccc(C(=O)Nc2ccc(OCC(=O)c3ccc(F)cc3)cc2)c1 | 2.64%
COc1ccc(-c2csc(NC(=O)c3cc4ccccc4oc3=O)n2)c(OC)c1 | 4.67%
C=CCNC(=O)CN(c1ccccc1OCC)S(C)(=O)=O | -1.26%
O=C(Nc1ccccc1C#Cc1ccccc1)C(c1ccccc1)c1ccccc1 | 2.76%
Cc1ccc(-c2ccc(=O)n(C(C)C(=O)c3ccc(C)c(C)c3)n2)cc1 (stereo not drawn) | 2.2%
CCCN1CCC(N[C@H]2CC[C@H](O)CC2)CC1 | -4.14%
COc1cccc(OCC(=O)Nc2cc(C)on2)c1 | -10.7%
COc1ccccc1C(=O)Nc1ccccc1N1CCN(C(=O)c2ccccc2)CC1 | 2.5%
CC(=O)c1c(-c2ccccc2)nc2n(CCN3CCCCC3)c3ccccc3n12 | -2.99%
CCc1c(C#N)c(N)nc(S)c1C#N | 74.5%
CCn1cc(C(=O)NCCOC)c(=O)c2ccc(C)nc21 | 2.79%
O=C(CCN1CCN(C(c2ccccc2)c2ccccc2)CC1)c1ccccc1 | -4.43%
Cc1cccc(OCCn2c(C)nc3cc(C)c(C)cc32)c1 | -1.11%
CC1(c2ccccc2)CC(C)(C)N(C(=O)c2cccc(F)c2)c2ccccc21 (stereo not drawn) | -1.85%
CC1=CC(=O)C(Cl)=C(C)/C1=N\S(=O)(=O)c1ccc(C)cc1 | 1.67%
CC1(C)[C@H]2CC=C(CN3CCCC(O)C3)[C@@H]1C2 (stereo partly drawn) | 0.217%
OCCN1CCN(Cc2ccc(Cl)cc2)CC1 | 0.135%
CCCCN(C)Cc1ccccc1[N+](=O)[O-] | 2.7%
N#CC1=C(N)Oc2c(c(O)nc3ccccc23)C1c1cccs1 (stereo not drawn) | 4.51%
CC1CCN(C(=O)Cn2cnc3c2c(=O)n(C)c(=O)n3C)CC1 | -0.116%

From article PMC6919601, “Identification of Plasmodium dipeptidyl aminopeptidase allosteric inhibitors by high throughput screening” (PLoS ONE, 2019)
